# According to the supplement of paper PMC4166925:
# ± gives the standard deviation of the averaged measurements. Whole data set: some 33,000 sequences, median “E-score (dimensionless, -0.5 to 0.5)” near -0.046, cut for the highest 2% near 0.36. The list shows a part of the results.
# System: T1, SpTbr T-box DNA-binding domain (GST fusion)
# T1 sequence: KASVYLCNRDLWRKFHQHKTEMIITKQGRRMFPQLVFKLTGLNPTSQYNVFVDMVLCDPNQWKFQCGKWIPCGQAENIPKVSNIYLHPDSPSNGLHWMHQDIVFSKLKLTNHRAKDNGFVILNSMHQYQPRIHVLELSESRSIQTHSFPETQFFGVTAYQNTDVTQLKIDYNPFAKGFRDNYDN
# Assay: PBM E-score of 8-mer (E-score (dimensionless, -0.5 to 0.5)); Tbr is Tbrain of the sea star Patiria miniata (Pm) or the sea urchin Strongylocentrotus purpuratus (Sp); higher = stronger binding preference; most listed sequences are background and not binding sites
# Details: the construct has about 5 more residues each side
# How it was run: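 Primer extension turned Universal Agilent oligonucleotide arrays double-stranded. They were incubated with 200 nM protein in PBS (pH 7.5); the protein was a GST-fused Tbr T-box DNA-binding domain expressed in BL21 E. coli at 20 °C and purified on glutathione. Every ungapped 8-mer was scored from the scanned, quantified probe intensities, and the Universal PBM Analysis Suite gave each an enrichment E-score averaged over duplicate arrays.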
row,Sequence,PBM E-score of 8-mer
1,AGCGTATC,-0.174 ± 0.059
2,GCACCCAA,0.129 ± 0.0065
3,ATGGGTTG,-0.0245 ± 0.061
4,CTAAGCAG,-0.0896 ± 0.044
5,TCAATCCA,-0.0551 ± 0.018
6,GCGATCAA,0.18 ± 0.035
7,GTCATGTA,-0.103 ± 0.042
8,ATGAGATA,-0.0124 ± 0.06
9,CCCGTCTC,-0.111 ± 0.024
10,TCCGAGGA,-0.273 ± 0.11
11,CCGGTCCG,-0.227 ± 0.036
12,GGACTTAC,-0.16 ± 0.046
13,CTAGTCGC,0.17 ± 0.037
14,CAGGAACA,-0.0592 ± 0.01
15,CTAGACAA,-0.0789 ± 0.0066
16,AGGGGGGC,-0.297 ± 0.0057
17,GAAGCGGC,0.0332 ± 0.044
18,AACTAGCC,-0.195 ± 0.016
19,GACGTGAA,0.103 ± 0.064
20,ACAGCAAG,0.0648 ± 0.034
21,ACGGCCCC,-0.245 ± 0.019
22,ATAACTTG,-0.0421 ± 0.068
23,TCCGTCAA,-0.0217 ± 0.072
24,ATTTACAA,0.0554 ± 0.12
25,AATTTCAG,-0.112 ± 0.14

row,Sequence,PBM E-score of 8-mer
1,AATAACCG,-0.0704 ± 0.021
2,CCTTGCCC,-0.306 ± 0.024
3,AGCCAAGG,-0.118 ± 0.076
4,AAAACTTA,-0.0204 ± 0.0067
5,TCACAGGA,0.217 ± 0.02
6,CCATCTTC,-0.066 ± 0.0012
7,TACATATA,-0.309 ± 0.025
8,AGACTAGA,-0.166 ± 0.012
9,TGTTGTAA,0.173 ± 0.068
10,GGTCCGAA,-0.161 ± 0.035
11,ACACCAAC,0.33 ± 0.042
12,GCGGAACC,-0.233 ± 0.12
13,ACGCTACA,0.0808 ± 0.067
14,ATGATGCG,0.103 ± 0.045
15,CCCGAGTC,-0.236 ± 0.073
16,CCGCGCCG,-0.0726 ± 0.2
17,CAACGTGA,0.118 ± 0.025
18,CACACCAC,0.394 ± 0.015
19,AATCCTTC,-0.185 ± 0.0063
20,TACGTTCA,-0.0963 ± 0.066
21,GTTTGTTA,0.1648 ± 0.00076
22,AAACTGCG,0.126 ± 0.042
23,ATGCGCGG,-0.0645 ± 0.066
24,ATTGATCG,-0.0161 ± 0.025
25,ATGGCAGA,-0.0355 ± 0.0081

row,Sequence,PBM E-score of 8-mer
1,CACGTACG,0.146 ± 0.013
2,AGACGGTC,-0.0976 ± 0.022
3,TGAGAGAA,0.0644 ± 0.036
4,CCCTCTAA,-0.0863 ± 0.034
5,CAACTCGC,0.3 ± 0.024
6,ATAGCGAA,-0.00655 ± 0.0054
7,GTCACAGA,0.0552 ± 0.0087
8,CGTCCGTA,-0.0855 ± 0.026
9,ACCTAGAT,0.0538 ± 0.0072
10,CTTGTCCA,0.0281 ± 0.03
11,CAACAATC,0.135 ± 0.0045
12,CTTATTTA,-0.292 ± 0.038
13,TAGGCCGA,-0.112 ± 0.007
14,CAACATGC,0.0294 ± 0.025
15,CTGTTTTA,-0.0491 ± 0.06
16,CGAGTGGA,0.115 ± 0.013
17,AAAAGGTC,-0.00656 ± 0.018
18,GCACCGGA,0.0891 ± 0.066
19,CCAATACC,-0.127 ± 0.0083
20,ATCCAAAC,-0.242 ± 0.016
21,CGGCGCGC,0.194 ± 0.026
22,AACCAGCC,-0.167 ± 0.057
23,AGATTCAC,0.141 ± 0.025
24,CAAAAAAA,-0.1537 ± 0.00074
25,CATCAGCG,0.103 ± 0.002

row,Sequence,PBM E-score of 8-mer
1,TATATGGA,-0.197 ± 0.005
2,ACGTGTTC,0.1884 ± 0.00041
3,TACGCTAA,0.136 ± 0.044
4,AGTTCCAC,-0.146 ± 0.019
5,AACCCCTC,0.101 ± 0.03
6,CCGTAGAC,-0.175 ± 0.014
7,ACCTTCCT,0.0956 ± 0.015
8,CAATAACG,0.0614 ± 0.048
9,CCAAGTGG,0.0467 ± 0.03
10,TATATTCA,0.0222 ± 0.047
11,GTATTGCA,-0.123 ± 0.032
12,CCCGATAA,0.0927 ± 0.11
13,TCTGTGAA,0.329 ± 0.017
14,CAGTTATA,-0.0338 ± 0.029
15,TAGTACCA,0.000295 ± 0.0026
16,CGCTCGGA,-0.206 ± 0.05
17,AGTCGACG,0.143 ± 0.039
18,ATTAACTC,0.0428 ± 0.0027
19,GCCGTGAA,0.354 ± 0.018
20,TGGCGCAA,0.221 ± 0.016
21,AGAGCACC,-0.0887 ± 0.0029
22,GGTGTCTA,0.292 ± 0.0045
23,AGGGTAGC,0.0431 ± 0.0041
24,GGGTGAAA,-0.0551 ± 0.015
25,AGATTAAG,-0.176 ± 0.015

row,Sequence,PBM E-score of 8-mer
1,CATGCGTC,-0.125 ± 0.021
2,ATATCTCG,0.0274 ± 0.018
3,AGCCGAGC,-0.0557 ± 0.018
4,GAGCGAAC,0.105 ± 0.0055
5,CGGTATGA,-0.134 ± 0.014
6,GAGCGTCA,0.182 ± 0.019
7,TCAATACA,-0.067 ± 0.06
8,AATGAAAG,0.12 ± 0.059
9,AAGAGTCA,0.017 ± 0.07
10,AGCGAGTG,0.162 ± 0.0084
11,GTGTGCTA,0.268 ± 0.025
12,ATAACACC,0.457 ± 0.0069
13,CGTACGGA,-0.197 ± 0.043
14,ACTATACC,-0.0642 ± 0.071
15,CCTAGAGG,-0.104 ± 0.084
16,AAGTTACT,-0.127 ± 0.0051
17,GTTGACCA,0.142 ± 0.036
18,ATAAGCAG,0.0253 ± 0.034
19,ACCCGGGC,0.111 ± 0.064
20,GCACGTCC,0.155 ± 0.0022
21,ATCCTCGC,0.207 ± 0.025
22,CGCGCGCA,0.247 ± 0.044
23,TGTTCTAA,-0.191 ± 0.042
24,AACGGGAC,-0.122 ± 0.0074
25,CACCCCGA,0.19 ± 0.078

row,Sequence,PBM E-score of 8-mer
1,CTAGTACC,0.0514 ± 0.022
2,GTAGGATA,-0.181 ± 0.059
3,ACGAGAAG,-0.0261 ± 0.057
4,AATCCACG,-0.0908 ± 0.062
5,ATGAAGTC,-0.0788 ± 0.023
6,TAAGCATA,-0.289 ± 0.033
7,AATATAAC,0.159 ± 0.031
8,AAATGGTT,0.0673 ± 0.072
9,CGCCCGAC,0.226 ± 0.012
10,CAGTCCAA,-0.108 ± 0.083
11,ACACGAGA,0.145 ± 0.015
12,ATGGGCCA,-0.215 ± 0.08
13,AGACAGCA,-0.0426 ± 0.034
14,CATACTCG,0.105 ± 0.03
15,ACCGAAAG,-0.193 ± 0.063
16,AAGTGTTA,0.451 ± 0.00073
17,TACTACAA,-0.195 ± 0.015
18,AGCGGACA,-0.145 ± 0.043
19,ACATAAAC,0.0411 ± 0.055
20,AATAAACC,-0.276 ± 0.034
21,ATTAACGC,0.22 ± 0.015
22,TCGCCAGA,0.0255 ± 0.017
23,CTACTCGA,-0.111 ± 0.065
24,TCACCGAA,0.0505 ± 0.0053
25,AATTAGCA,0.176 ± 0.0027

row,Sequence,PBM E-score of 8-mer
1,ACGTGATA,0.118 ± 0.065
2,AAAAAAGA,-0.101 ± 0.057
3,CCCACAGA,-0.122 ± 0.054
4,GTGGTGGA,0.0977 ± 0.035
5,ATCAGATA,-0.0339 ± 0.043
6,CGGATAGA,-0.1767 ± 0.0013
7,AGACTAGG,-0.128 ± 0.17
8,ATCTTAGG,-0.171 ± 0.024
9,AACCTCGT,0.0688 ± 0.084
10,GGTACCTA,-0.209 ± 0.053
11,CGATTAGA,-0.0265 ± 0.03
12,CGACTGAA,-0.00792 ± 0.0065
13,CTGTACTC,-0.143 ± 0.029
14,ACCCCCCA,-0.116 ± 0.039
15,CGCTCCGA,-0.0649 ± 0.052
16,ACAATGGA,-0.165 ± 0.0037
17,ACGCTTCC,-0.0414 ± 0.046
18,GAAAGATA,-0.249 ± 0.031
19,GGTGGCCA,0.032 ± 0.039
20,AATCCGAC,-0.061 ± 0.0046
21,CGTACTAA,-0.246 ± 0.053
22,AGTGGGCG,0.12 ± 0.052
